The other results are listed elsewhere or left out.
B1: PhoQ; a variant is named by its letters at X, in order, P23837 (parent)
chain: MKKLLRLFFPLSLRVRFLLATAAVVLVLSLAYGMVALIGYSVSFDKTTFRLLRGESNLFYTLAKWENNKLHVELPENIDKQSPTMTLIYDENGQLLWAQRDVPWLMKMIQPDWLKSNGFHEIEADVNDTSLLLSGDHSIQQQLQEVREDDDDAEMTHSVAVNVYPATSRMPKLTIVVVDTIPVELKSSYMVWSWFIYVLSANLLLVIPLLWVAAWWSLRPIEALAKEVRELEEHNRELLNPATTRELTSLVRNLNRLLKSERERYDKYRTTLTDLTHSLKTPLXXLQXXLRSLRSEKMSVSDAEPVMLEQISRISQQIGYYLHRASMRGGTLLSRELHPVAPLLDNLTSALNKVYQRKGVNISLDISPEISFVGEQNDFVEVMGNVLDNACKYCLEFVEISARQTDEHLYIVVEDDGPGIPLSKREVIFDRGQRVDTLRPGQGVGLAVAREITEQYEGKIVAGESMLGGARMEVIFGRQHSAPKDE

Variants of: B1
Test: enrichment ratio after two sorts for PhoP signalling (ratio (wild type AVST 3.29)); higher = more functional
Conditions: with PhoP (E. coli)

| Variant | enrichment ratio |
| --- | --- |
| SVHM | ≤ 0.25 |
| FPHS | ≤ 0.25 |
| VWCF | ≤ 0.25 |
| KKGN | ≤ 0.25 |
| KGHH | ≤ 0.25 |
| SSMF | 12.7 |
| RTYE | ≤ 0.25 |
| VFPA | ≤ 0.25 |
| EQAC | ≤ 0.25 |
| AIRG | ≤ 0.25 |
| LIVL | ≤ 0.25 |
| FWMY | ≤ 0.25 |
| KPRR | ≤ 0.25 |
| LVMY | ≤ 0.25 |
| MFWR | ≤ 0.25 |
| WKMH | ≤ 0.25 |
| KYHM | ≤ 0.25 |
| KQSW | ≤ 0.25 |
| HTVG | ≤ 0.25 |
| FGPG | ≤ 0.25 |
| ERAF | ≤ 0.25 |
| HLVG | ≤ 0.25 |
| FWWN | ≤ 0.25 |
| WAFC | ≤ 0.25 |
| EAHF | ≤ 0.25 |
| FVCI | 0.403 |

| Variant | enrichment ratio |
| --- | --- |
| DFHF | ≤ 0.25 |
| AQSN | 8.17 |
| GYSK | ≤ 0.25 |
| YSRP | ≤ 0.25 |
| FGCY | ≤ 0.25 |
| YHNE | ≤ 0.25 |
| LGPD | ≤ 0.25 |
| GQTQ | ≤ 0.25 |
| VQWS | ≤ 0.25 |
| FQFW | ≤ 0.25 |
| VTPE | ≤ 0.25 |
| LNVK | ≤ 0.25 |
| TQHG | 2.39 |
| HAPA | ≤ 0.25 |
| DKRA | ≤ 0.25 |
| EELT | ≤ 0.25 |
| TDYE | ≤ 0.25 |
| QYHQ | ≤ 0.25 |
| FNIQ | ≤ 0.25 |
| YKKS | ≤ 0.25 |
| ITMM | 17.7 |
| DCKL | ≤ 0.25 |
| NSYQ | ≤ 0.25 |
| PQTL | ≤ 0.25 |
| HSDQ | ≤ 0.25 |
| MIRI | ≤ 0.25 |

| Variant | enrichment ratio |
| --- | --- |
| GMAD | ≤ 0.25 |
| TPVH | ≤ 0.25 |
| GQQP | ≤ 0.25 |
| GMRL | ≤ 0.25 |
| REAV | ≤ 0.25 |
| GTSF | 4.66 |
| YNGG | ≤ 0.25 |
| FVDP | ≤ 0.25 |
| GQYT | ≤ 0.25 |
| NDKC | ≤ 0.25 |
| EIPR | ≤ 0.25 |
| PCAD | ≤ 0.25 |
| GEVC | 7.47 |
| IEAS | ≤ 0.25 |
| ENCN | ≤ 0.25 |
| GSDY | ≤ 0.25 |
| VPGI | ≤ 0.25 |
| TTFN | 4.6 |
| YNCQ | ≤ 0.25 |
| EGVD | ≤ 0.25 |
| WMAK | ≤ 0.25 |
| ETHN | ≤ 0.25 |
| MHTI | ≤ 0.25 |
| ITWY | ≤ 0.25 |
| QFEP | ≤ 0.25 |

From a collection of fitness landscapes (doi:10.1126/science.1257360)
